# In PubChem BioAssay AID1347417 (National Center for Advancing Translational Sciences (NCATS), 2020):
# Among all 120,000 compounds or so, about 5,300 (4.4%) were called active. Inconclusive means that the source gave no clear call. Such entries were picked first, then a sample of the others. The call rests on the fitted dose curve; in most records, active means well fitted inhibition curve with a large enough effect; inconclusive means small, poorly fitted or top-dose-only effect; inactive means no such curve, though single readings can be large or run the other way. A potency beside an inconclusive call is a rough fit, not a confirmed value.
# Assay: qHTS Primary assay for Inhibitors of Plasmodium falciparum Dd2 growth in vitro; further: nearly all actives have a fitted effect of over 65% in size;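 on activity, negative = inhibition: plate controls were DMSO vehicle for no effect and reference drug for full effect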
# Settings: P. falciparum Dd2 growth, SYBR Green, 72 h; activity, negative = inhibition: at 28.9 µM (top of the series) unless noted; series mostly up to 28.9 µM
# How it was run: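 Readout: SYBR Green fluorescence, 485 nm excitation, 535 nm emission, after ~16 h lysis at 37C. Before that, Dd2-infected red cells (2.5% hematocrit) grew 72 h with compound, 29 uM top final concentration.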
# Potency means the concentration at half of the fitted maximal effect; tags describe the fitted curve by direction and shape.
Structure (SMILES),Potency,outcome,"activity, negative = inhibition"
CCN1c2cc(C(=O)NC3CCCCCC3)ccc2C(=O)N2CCCCC21 (stereo not drawn),"inconclusive: 3.98 µM [inhibitor, single point]",–,–
CCC1Oc2ccc(NC(=O)c3ccccc3F)cc2CN(Cc2ccc3c(c2)OCO3)C1=O (stereo not drawn),–,inactive,–
Cc1ccc2oc(-c3ccc(C)c(NC(=O)/C=C/c4ccco4)c3)nc2c1,"inconclusive: 8.91 µM [inhibitor, single point]",–,–
CCN(CC)C(=O)C1=C(C)Nc2nc3ccccc3n2C1c1cccc(OC)c1 (stereo not drawn),"inconclusive: 10 µM [inhibitor, partial curve]",–,–
O[C@@H]1C[C@@H](c2nnc3n2CCN(Cc2cccc(F)c2)C3)N(Cc2ccccc2)C1,"inconclusive: 14.1 µM [inhibitor, single point]",–,–
O=C(c1ccc(F)cc1Cl)N1CCC(Cc2nc(-c3ccc(F)cc3)no2)CC1,"inconclusive: 8.91 µM [inhibitor, single point]",–,–
CC(C)(C)C(=O)N1CCCC(c2nn(-c3ccc(F)cc3)c(=O)[nH]2)C1 (stereo not drawn),"inconclusive: 17.8 µM [inhibitor, single point]",–,–
COC(=O)c1ccccc1NC(=O)Cn1cccc1-c1nc(-c2ccccc2)no1,–,–,inactive: 20.8%
CCOc1ccccc1NC(=O)Cn1c(=O)n(CC)c(=O)c2c1cc(C)n2C,"inconclusive: 17.8 µM [inhibitor, single point]",–,–
CCc1ccc(OCC(=O)N(Cc2ccc(C(C)C)cc2)C2CCS(=O)(=O)C2)cc1 (stereo not drawn),"inconclusive: 0.0398 µM [inhibitor, full curve, poor fit]",–,–
COCCNc1cc(-c2cccc(C(F)(F)F)c2)nc2c(C)noc12,"inconclusive: 31.6 µM [inhibitor, single point]",–,–
O=C(NCc1nnc2c(-c3nc(C4CC4)no3)cccn12)c1ccc(F)c(Cl)c1,–,inactive,–
CCn1c(CN2CCN(C)CC2)nc2cc(NC(=O)c3ccc([N+](=O)[O-])cc3)ccc21,"inconclusive: 17.8 µM [inhibitor, single point]",–,–
CN1CCN(C(=O)CCCOc2ccccc2)CC12CCNC(=O)CC2 (stereo not drawn),–,–,inactive: -7.34%
COc1ccc(C(=O)c2cn(CC(=O)Nc3cc(C)ccc3C)c3nc(C)ccc3c2=O)cc1,"inconclusive: 5.01 µM [inhibitor, partial curve, poor fit]",–,–
CNC(=O)[C@@H](c1ccccc1F)N1CCC[C@H]1C(=O)NCc1cccnc1,–,–,inactive: 11%
COc1ccccc1CCC(=O)NC1CCN(c2cc(-c3ccccc3)[nH]n2)CC1,–,inactive,–
O=C(NCc1ccncc1)c1cc(C2CC2)nc2c1c(C1CCCN1)nn2-c1ccccc1 (stereo not drawn),active: 8.91 µM,–,–
